Experimental data taken from US11117930B2, “Peptide inhibitors of transcription factor aggregation” (ADRX, INC., priority 2017, dated 2021).
Where “and” joins values, the source holds several entries; their conditions need not be identical. Equal values may be shown once. Part of at least one peptide drawing is inferred or uncertain, most often the ends. At least one compound was matched to its structure with a doubt left. Non-standard residues stand in square brackets, D forms with d. Residues, ends and D or L forms follow the SMILES beside them. No end group written: not given here. Chg = N[C@H](C(=O)O)C1CCCCC1

Biological target: Nat1 (LTIITLE (SEQ ID NO: 225)) (Homo sapiens, UniProt P04637)
Assay: Thioflavin T aggregation assay (Nat1)
Format: biochemical
Conditions: ThT fluorescence, 50 μM Nat1, pH6.0, room temperature, 2 hours
Description: The peptides of the invention were tested in an in vitro Thiofiavin T aggregation assay [see WO2014/182961]. An increase in Thioflavin T fluorescence is detected over time due to the formation of increasing amounts of amyloid to which the dye can specifically bind. […] For the Nat1 Stock Solution, Nat (LTIITLE (SEQ ID NO: 225), >95% Pure, TFA salt) is dissolved at 8 mM in 25 mM NaOH solution and kept at −80° C. Prior to the assay, it is diluted to 1 mM in H2O. The 2× Reaction Buffer is prepared with 200 mM Sodium Phosphate, pH6.0, 500 mM Sodium Chloride and 200 μM Thioflavin T (ThT). 100 μL of 2× reaction buffer and 80 μL of H2O are added to each well in black, clear-bottomed 96-well plate. Inhibitor peptides are dissolved in H2O to appropriate concentrations to produce 6-points dose response curves. 10 μL of dissolved peptide or H2O (control) is added to each reaction well. 10 μL of 1 mM Nat1 peptide is added to each reaction well (a final concentration of 50 μM). ThT fluorescence is monitored at room temperature every minute for 2 hours with excitation and emission wavelengths of 440 and 485 nm, respectively. IC50 values are calculated using Graphpad Prism.

C[C@@H](NC(=O)[C@@H](Cc1c[nH]cn1)NC(=O)[C@@H](Cc1c[nH]c2ccccc12)NC(=O)[C@@H](CCCNC(=N)N)NC(=O)[C@@H](Cc1c[nH]c2ccccc12)NC(=O)[C@H](N)Cc1ccccc1)C(=O)N[C@H](CCCNC(=N)N)C(=O)O [fwrwhar] (H-[dF][dW][dR][dW][dH][dA][dR]-OH; N-terminus and C-terminus assumed)
IC50: 245 nM

LTRITLE [LTRITLE, reference compound]
IC50: 1680 nM

LRIRFFR [LRIRFFR]
IC50: 90 nM

C[C@@H](NC(=O)[C@@H](CCCNC(=N)N)NC(=O)[C@@H](Cc1c[nH]c2ccccc12)NC(=O)[C@H](N)Cc1ccccc1)C(=O)N[C@H](Cc1c[nH]cn1)C(=O)N[C@H](CCCNC(=N)N)C(=O)N[C@H](CCCNC(=N)N)C(=O)O [fwrahrr] (H-[dF][dW][dR][dA][dH][dR][dR]-OH; N-terminus and C-terminus assumed)
IC50: 293 nM

CC[C@@H](C)[C@@H](NC(=O)[C@H](N)CCCNC(=N)N)C(=O)N[C@H](CCCNC(=N)N)C(=O)N[C@H](Cc1c[nH]c2ccccc12)C(=O)N[C@H](Cc1ccc(O)cc1)C(=O)N[C@H](Cc1c[nH]c2ccccc12)C(=O)N[C@H](CCCCN)C(=O)O [rirwywk] (H-[dR][dI][dR][dW][dY][dW][dK]-OH; N-terminus and C-terminus assumed)
IC50: 110 nM

N=C(N)NCCC[C@@H](NC(=O)[C@@H](Cc1c[nH]c2ccccc12)NC(=O)[C@@H](CCC(N)=O)NC(=O)[C@@H](Cc1c[nH]c2ccccc12)NC(=O)[C@H](N)Cc1ccc(O)cc1)C(=O)N[C@H](CCC(N)=O)C(=O)N[C@H](CO)C(=O)O [ywqwrqs] (H-[dY][dW][dQ][dW][dR][dQ][dS]-OH; N-terminus and C-terminus assumed)
IC50: 338 nM

C[C@@H](NC(=O)[C@@H](C)NC(=O)[C@@H](Cc1c[nH]cn1)NC(=O)[C@@H](Cc1c[nH]c2ccccc12)NC(=O)[C@@H](CCCNC(=N)N)NC(=O)[C@@H](Cc1c[nH]c2ccccc12)NC(=O)[C@H](N)Cc1ccccc1)C(=O)O [fwrwhaa] (H-[dF][dW][dR][dW][dH][dA][dA]-OH; N-terminus and C-terminus assumed)
IC50: 458 nM

LTIRYYK [LTIRYYK]
IC50: 93 nM

TYVYRRR [TYVYRRR]
IC50: 3660 nM

LRIRHYT [LRIRHYT]
IC50: 182 nM

WTIMLWH [WTIMLWH]
IC50: 525 nM

LRIKYHR [LRIKYHR]
IC50: 71 nM

N=C(N)NCCC[C@@H](NC(=O)[C@@H](Cc1c[nH]c2ccccc12)NC(=O)[C@@H](Cc1ccc(O)cc1)NC(=O)[C@@H](Cc1ccc(O)cc1)NC(=O)[C@@H](CCCNC(=N)N)NC(=O)[C@@H](CCC(N)=O)NC(=O)[C@H](N)CCC(N)=O)C(=O)O [qqryywr] (H-[dQ][dQ][dR][dY][dY][dW][dR]-OH; N-terminus and C-terminus assumed)
IC50: 95 nM

N=C(N)NCCC[C@@H](NC(=O)[C@@H](CCC(N)=O)NC(=O)[C@@H](Cc1c[nH]cn1)NC(=O)[C@@H](CCCNC(=N)N)NC(=O)[C@@H](Cc1c[nH]c2ccccc12)NC(=O)[C@@H](CCCNC(=N)N)NC(=O)[C@H](N)CCCCN)C(=O)O [krwrhqr] (H-[dK][dR][dW][dR][dH][dQ][dR]-OH; N-terminus and C-terminus assumed)
IC50: 245 nM

YRLRYVR [YRLRYVR]
IC50: 175 nM

CC[C@@H](C)[C@@H](NC(=O)[C@H](N)CCC(N)=O)C(=O)N[C@H](CCCNC(=N)N)C(=O)N[C@H](Cc1ccc(O)cc1)C(=O)N[C@H](Cc1ccccc1)C(=O)N[C@H](CCCNC(=N)N)C(=O)N[C@H](CCCNC(=N)N)C(=O)O [qiryfrr] (H-[dQ][dI][dR][dY][dF][dR][dR]-OH; N-terminus and C-terminus assumed)
IC50: 167 nM

LLIKYAR [LLIKYAR]
IC50: 301 nM

CC(C)C[C@@H](NC(=O)[C@@H](Cc1ccc(O)cc1)NC(=O)[C@@H](CCCNC(=N)N)NC(=O)[C@@H](Cc1c[nH]c2ccccc12)NC(=O)[C@H](N)CCCNC(=N)N)C(=O)N[C@H](CCCNC(=N)N)C(=O)N[C@H](CCCNC(=N)N)C(=O)O [rwrylrr] (H-[dR][dW][dR][dY][dL][dR][dR]-OH; N-terminus and C-terminus assumed)
IC50: 49 nM

N=C(N)NCCC[C@@H](NC(=O)[C@@H](Cc1c[nH]cn1)NC(=O)[C@@H](Cc1c[nH]cn1)NC(=O)[C@@H](CCCNC(=N)N)NC(=O)[C@@H](Cc1c[nH]c2ccccc12)NC(=O)[C@@H](Cc1c[nH]cn1)NC(=O)[C@H](N)CO)C(=O)O [shwrhhr] (H-[dS][dH][dW][dR][dH][dH][dR]-OH; N-terminus and C-terminus assumed)
IC50: 2270 nM

N=C(N)NCCC[C@@H](NC(=O)[C@@H](Cc1c[nH]c2ccccc12)NC(=O)[C@H](N)Cc1c[nH]cn1)C(=O)N[C@H](Cc1c[nH]c2ccccc12)C(=O)N[C@H](Cc1ccc(O)cc1)C(=O)N[C@H](Cc1c[nH]c2ccccc12)C(=O)N[C@H](CCCCN)C(=O)O [hwrwywk] (H-[dH][dW][dR][dW][dY][dW][dK]-OH; N-terminus and C-terminus assumed)
IC50: 159 nM

N=C(N)NCCC[C@@H](N)C(=O)N[C@H](Cc1ccccc1)C(=O)N[C@H](Cc1c[nH]cn1)C(=O)N[C@H](CCCNC(=N)N)C(=O)N[C@H](Cc1c[nH]cn1)C(=O)N[C@H](Cc1c[nH]cn1)C(=O)N[C@H](CCCNC(=N)N)C(=O)O [rfhrhhr] (H-[dR][dF][dH][dR][dH][dH][dR]-OH; N-terminus and C-terminus assumed)
IC50: 30900 nM

LTIKLWH [LTIKLWH]
IC50: 232 nM and 260 nM

LFIFYHR [LFIFYHR]
IC50: 476 nM

WTKITLH [WTKITLH]
IC50: 427 nM

TRIYRVK [TRIYRVK]
IC50: 3740 nM

N=C(N)NCCC[C@@H](N)C(=O)N[C@H](Cc1c[nH]c2ccccc12)C(=O)N[C@H](Cc1c[nH]cn1)C(=O)N[C@H](Cc1c[nH]c2ccccc12)C(=O)N[C@H](Cc1c[nH]cn1)C(=O)N[C@H](Cc1c[nH]c2ccccc12)C(=O)N[C@H](CCCNC(=N)N)C(=O)O [rwhwhwr] (H-[dR][dW][dH][dW][dH][dW][dR]-OH; N-terminus and C-terminus assumed)
IC50: 145 nM

CSCC[C@@H](NC(=O)[C@H](N)CCCNC(=N)N)C(=O)N[C@H](Cc1c[nH]c2ccccc12)C(=O)N[C@H](CCCNC(=N)N)C(=O)N[C@H](Cc1c[nH]cn1)C(=O)N[C@H](Cc1c[nH]cn1)C(=O)N[C@H](CCCNC(=N)N)C(=O)O [rmwrhhr] (H-[dR][dM][dW][dR][dH][dH][dR]-OH; N-terminus and C-terminus assumed)
IC50: 13200 nM

LRIYRVR [LRIYRVR]
IC50: 81 nM

N=C(N)NCCC[C@@H](NC(=O)[C@@H](CCCNC(=N)N)NC(=O)[C@@H](Cc1ccc(O)cc1)NC(=O)[C@@H](CCCNC(=N)N)NC(=O)[C@@H](Cc1c[nH]c2ccccc12)NC(=O)[C@@H](CCC(N)=O)NC(=O)[C@H](N)Cc1ccc(O)cc1)C(=O)O [yqwryrr] (H-[dY][dQ][dW][dR][dY][dR][dR]-OH; N-terminus and C-terminus assumed)
IC50: 191 nM

LLIAYHR [LLIAYHR]
IC50: 466 nM

LYIRTLH [LYIRTLH]
IC50: 203 nM

LYIRTYH [LYIRTYH]
IC50: 257 nM and 463 nM

CC[C@H](C)[C@H](N)C(=O)N[C@@H](CCCNC(=N)N)C(=O)N[C@H](C(=O)N[C@@H](CCCNC(=N)N)C(=O)N[C@@H](CCCNC(=N)N)C(=O)N[C@@H](Cc1ccc(O)cc1)C(=O)N[C@@H](CCCNC(=N)N)C(=O)O)C1CCCCC1 [Ile-Arg-Chg-Arg-Arg-Tyr-Arg] (H-IR[Chg]RRYR-OH; N-terminus and C-terminus assumed)
IC50: 81 nM

IRLRRYR [IRLRRYR]
IC50: 153 nM

WTIKLTH [WTIKLTH]
IC50: 720 nM

IQIYRYK [IQIYRYK]
IC50: 444 nM

N=C(N)NCCC[C@@H](NC(=O)[C@@H](Cc1ccc(O)cc1)NC(=O)[C@@H](Cc1c[nH]c2ccccc12)NC(=O)[C@@H](CCC(N)=O)NC(=O)[C@H](N)Cc1ccc(O)cc1)C(=O)N[C@H](Cc1c[nH]c2ccccc12)C(=O)N[C@H](CCC(N)=O)C(=O)O [yqwyrwq] (H-[dY][dQ][dW][dY][dR][dW][dQ]-OH; N-terminus and C-terminus assumed)
IC50: 194 nM

LRLRHYR [LRLRHYR]
IC50: 146 nM

LYIFRHT [LYIFRHT]
IC50: 363 nM

ARIRRYR [ARIRRYR]
IC50: 144 nM

LLAKYHR [LLAKYHR]
IC50: 1730 nM

TRIRFYR [TRIRFYR]
IC50: 64 nM

WYIRLWH [WYIRLWH]
IC50: 288 nM

LYIRHK [LYIRHK]
IC50: 316 nM

CC(C)C[C@@H](NC(=O)[C@@H](Cc1ccc(O)cc1)NC(=O)[C@@H](Cc1c[nH]cn1)NC(=O)[C@@H](Cc1ccccc1)NC(=O)[C@H](N)CCC(N)=O)C(=O)N[C@H](CS)C(=O)N[C@H](CCCNC(=N)N)C(=O)N[C@H](CCCNC(=N)N)C(=O)O [qfhylcrr, qfhykrr] (H-[dQ][dF][dH][dY][dL][dC][dR][dR]-OH; N-terminus and C-terminus assumed)
IC50: 23900 nM

TYIYRQR [TYIYRQR]
IC50: 5170 nM

CC(C)C[C@@H](NC(=O)[C@H](N)CCCNC(=N)N)C(=O)N[C@H](Cc1c[nH]cn1)C(=O)N[C@H](Cc1c[nH]c2ccccc12)C(=O)N[C@H](CCCCN)C(=O)N[C@H](Cc1c[nH]cn1)C(=O)N[C@H](Cc1c[nH]cn1)C(=O)O [rlhwkhh] (H-[dR][dL][dH][dW][dK][dH][dH]-OH; N-terminus and C-terminus assumed)
IC50: 215 nM

LLIKAHR [LLIKAHR]
IC50: 258 nM

IFVYHH [IFVYHH]
IC50: 703 nM
